# According to the supplement of paper PMC10338343:
# ± gives the standard deviation. Whole data set: some 5,500 sequences, median “pre-steady-state target cleavage rate” near 0.1, cut for the highest 2% near 0.64. This is a selection; strong and weak results do not stand in their true shares.
# System: MIWI (PIWIL1) piRISC loaded with piRNA #2 (30 nt)
# Experiment: pre-steady-state target cleavage rate (min^-1); MIWI and MILI are mouse PIWI proteins and EfPiwi is from a freshwater sponge; tags in brackets are library labels; higher = faster piRNA-guided slicing of the target
# Details: guide: piRNA #2 5'p-UUAGGUAACCCAGUAGAUCCAGAGGAAUUC; auxiliary factor: 500 nM mouse GTSF1
# Outline: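 The pre-steady-state cleavage rate was derived from a burst-and-steady-state fit of Cleave-'n-Seq data. For these assays, 1 nM active affinity-purified piRISC loaded with a single synthetic guide was mixed with […] a transcribed, DNA-blocked target RNA library in HEPES–potassium acetate buffer at 33 °C, with or without 500 nM GTSF1 partner protein, for 0–8 or 0–960 min. Sequencing counts of uncleaved targets were normalised to depth and to weakly complementary targets, and k3 was capped at 0.0001 min^-1 after three trials were pooled.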
row,Sequence,pre-steady-state target cleavage rate
1,CUUAAGGAGUGGAUCUACUCGGUUACCUAA,0.0154 ± 0.011
2,CUUAAGGACUGGCAUCUACUGGGUUACCUAA,0.069 ± 0.017
3,CUUAUCCUCUGGAUCUACUGGGCUACCUAA,0.136 ± 0.025
4,CUUAUCCUGUGGAUCUUCUGGGUUACCUAA,0.226 ± 0.054
5,CUUUUGCUCUGGAUCUACUGGGUUACCUUA,0.111 ± 0.021
6,CUUUUCCUCUGGAUCUACUGGGUUAACUAA,0.396 ± 0.069
7,CUAUUCCUCUGGAUCUACUGGCGUUACCUAA,0.005 ± 0.0032
8,CUUAUCCUCUGGAUCUAGUGGGUAACCUAA,0.0406 ± 0.0091
9,CUUAAGGAGACGUUCUACUGGGAUACCUAA,< 0.0001
10,CUUAAGGAGUGGAUCUACUGGGUUACUCUAA,0.0304 ± 0.0093
11,CUUAAGGAGUGGAUCUAGUGCGUUACCUAA,0.00413 ± 0.0024
12,GAAUUCCACUGGAUCUACAGGGUUACCUAA,0.407 ± 0.026
13,CUUAAGGAGACCUAGAUGACGGUUAACCUAA,< 0.0001
14,CUUAUGCUCUGGAUGUACUGGGUUACCUAA,0.244 ± 0.02
15,CUUAUCCUCUGGAUCUACUGGGUUAGCUUA,0.252 ± 0.06
16,CUUUUCGUCUGGAUGUACUGGGUUACCUAA,0.0411 ± 0.024
17,CUUUUCCACUGGAUCUACUGCGUUACCUAA,0.581 ± 0.057
18,CAAUUCCUCUGGAUGUACUGGGUUACCAAA,0.466 ± 0.062
19,CUUUUCCUCUGGAACUACUGGGAUACCUAA,0.0888 ± 0.018
20,CUUAAGCUCUGGUUCUACAGGGUUACCUAA,0.22 ± 0.018
21,CUUAAGCUCUGGAUCUAUUGGGUUACCUAA,0.0482 ± 0.0067
22,GAAUUCCUCUGGAUCUACUCGGAUACCUAA,0.0217 ± 0.0077
23,CUAUUCCUCUGGAUCUACUGGGUUUGGAUA [g7:g28:cont:t1A],0.00737 ± 0.0041
24,CUUAACCUCUGGAUCUACAGGGUUAGCUAA,0.0376 ± 0.0069

row,Sequence,pre-steady-state target cleavage rate
1,CUUAAGCUGUGGAUCUACUGGGUUACCAAA,0.0319 ± 0.022
2,CUUAUCCUCUGGAUCUACUGGGAUACGUAA,0.241 ± 0.037
3,CUUAAGGUCUGGAUCUUCUGGGUUACCUAA,0.226 ± 0.036
4,CUAUUCCUCUGGAUCUACUGGGUUACCUGAA,0.365 ± 0.12
5,CAAUUCCUCUGGAUCUAAUGGGUUACCUAA,0.246 ± 0.032
6,CUUAAGGUGUGGAUCUACAGGGUUACCUAA,0.0388 ± 0.0057
7,CUUAAGGUCUGGAUCUACUGGGUUACGUUA,0.149 ± 0.025
8,CAAUUCCUCAGGAUCUAGUGGGUUACCUAA,0.205 ± 0.024
9,CUUAACCUCUGGAUCUACUGGGAUACCUAA,0.168 ± 0.024
10,CUUUUCCUCUGGAUCUACUCGCUUACCUAA,0.00487 ± 0.0032
11,CUUAUGCUCUGGAACUACUGGGUUACCUAA,0.262 ± 0.029
12,CUUAACCUCUGGAUCAACUGGGUUACCUUA,0.187 ± 0.023
13,CUUUACCUCUGGAUGUACUGGGUUACCUAA,0.518 ± 0.034
14,CUUAACCUCUGGAUCUACUGGGUUUACCUAA,0.221 ± 0.029
15,CUUAAGCUCUGGAUCUUCUCGGUUACCUAA,0.0206 ± 0.0076
16,GAAAUCCUCUGGAUCUACUGGGUUAGCUAA,0.509 ± 0.064
17,CUUAAGCUCUGGUUCUACUGGGUUACCAAA,0.11 ± 0.02
18,CUUAAGGAGUGGAUCUACUGGGUUACCUAC [g2:g21:cont:t1C],0.0825 ± 0.021
19,CUUUUCCUCUGGAUCAACUGGCUUACCUAA,0.0733 ± 0.012
20,CUUUUCCUCUGGAACUACUGGGUAACCUAA,0.19 ± 0.029
21,CUUUUCCACUGGAUCUACUGGGUUACCAAA,0.303 ± 0.037
22,CUUAACGUCUGGAUCUACUGGGUUACGUAA,0.518 ± 0.052
23,CUUAACCUCUGGAUCUACUGGGUUAGGAAA,0.0155 ± 0.0049
24,CUUUUCCUGUGGAUCUACUGGGUUAGCUAA,0.104 ± 0.023

row,Sequence,pre-steady-state target cleavage rate
1,CUAUUCCUCUGGCAUCUACUGGGUUACCUAA,0.399 ± 0.1
2,CUUAACCUCUGGAUCUACUGGGUUACGUUA,0.292 ± 0.032
3,CUAUUCCUCUGGAUCUUCUGGGUUACCUUA,0.313 ± 0.054
4,CUUAACCUCUGGAUCUUCUGGGUUACCUAA,0.228 ± 0.028
5,CUUAAGGAGACCUAGAUGUGGGUUACACUAA,< 0.0001
6,GAAUUCCUCUCGAUCUACUGCGUUACCUAA,0.691 ± 0.063
7,CUAUUCCACUGGAUGUACUGGGUUACCUAA,0.396 ± 0.036
8,CUUAAGGAGAGGAUCUACUGGGUUACCCAA,0.0246 ± 0.0055
9,CUUUUCCUCUGGAUCUACUGGGUAACGUAA,0.232 ± 0.036
10,CAAUCCCUCUGGAUCUACUGGGUUACCUAA,0.424 ± 0.054
11,CUUAACCACAGGAUCUACUGGGUUACCUAA,0.146 ± 0.028
12,CUUAAGGAGACCUAGUACUGGGAAACCUAA,< 0.0001
13,CUUAAGGAGUAGGAUCUACUGGGUUACCUAA,0.0101 ± 0.0048
14,CUUAAGCUCUGGAUCUUCUGGGUUUCCUAA,0.0285 ± 0.0062
15,CAUUCCUCUGGAUCUACUGGGUUACCUAA,0.502 ± 0.064
16,CUAUUCCUCUGGAGCUACUGGGUUACCUAA,0.395 ± 0.028
17,CUUAAGGUCUGGAACUACUGGGAUACCUAA,0.0646 ± 0.025
18,CUUAUCGUCUGGAUGUACUGGGUUACCUAA,0.051 ± 0.034
19,GAUUACCUCUGGAUCUACUGGGUUACCUAA,0.104 ± 0.026
20,CUUAUCCUCUGGUUGUACUGGGUUACCUAA,0.377 ± 0.025
21,GUAAUCCUCUGGAUCUACUGGGUUACCUAA,0.15 ± 0.045
22,CUUAAGGACUGGAUCUACUGGGUUACGAAA,0.0347 ± 0.03
23,CUUAACCUCUGCAUCUACUGGGAUACCUAA,0.0864 ± 0.0093
24,CUUAUCCUCUGGAUCUACUGGGUUUCCAAA,0.166 ± 0.049
